# The shares of active, inactive and inconclusive entries below differ from those in the screen. For some of these results: No potency is given beside an inconclusive call; the fits are too rough. Active and inactive are the calls of the source. Unless noted, calls come from the whole dose curve; as a rule, active = well fitted curve in the direction sought with a large enough effect in the repeat runs; inconclusive = weak or mixed curves; inactive = no such curve, though single readings can be large; an effect the other way counts as inactive or inconclusive.
# Key:
# [1] = target: Vitamin D3 receptor (Homo sapiens) (UniProt P11473); experiment: qHTS assay to identify small molecule agonists of the vitamin D receptor (VDR) signaling pathway (AID 743222; calls by dose curve; note: potency is the fitted concentration of half-maximal effect); conditions: HEK293T VDR-UAS-bla, beta-lactamase FRET ratio, 16 h; activation: at 63.5 µM (top of the series) unless noted
# Sequence of UniProt P11473 (P11473 whole entry, looked up): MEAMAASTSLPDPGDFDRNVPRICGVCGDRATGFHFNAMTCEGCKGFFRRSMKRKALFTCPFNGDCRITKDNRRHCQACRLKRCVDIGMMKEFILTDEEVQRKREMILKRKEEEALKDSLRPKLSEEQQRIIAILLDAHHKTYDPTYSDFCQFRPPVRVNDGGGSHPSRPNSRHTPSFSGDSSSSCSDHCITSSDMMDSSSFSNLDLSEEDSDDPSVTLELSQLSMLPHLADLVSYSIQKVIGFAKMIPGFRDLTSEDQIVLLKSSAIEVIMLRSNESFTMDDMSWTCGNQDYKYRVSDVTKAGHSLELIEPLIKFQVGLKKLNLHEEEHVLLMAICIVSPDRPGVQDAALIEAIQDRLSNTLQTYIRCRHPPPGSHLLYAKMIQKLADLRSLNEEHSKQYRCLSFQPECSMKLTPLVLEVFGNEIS
# How it was run: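 In VDR-bla cells, compound-induced beta-lactamase expression is quantified by FRET substrate fluorescence. Treatment lasts 16 h at 37C; substrate develops 2 h at room temperature.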
# [2] = qHTS RealTime-Glo MT Cell Viability Assay in HEK293 cells - 8 hour (AID 1224887); note: top concentration of the series differs between compounds; % is set by controls: 0 for no effect and ±100 for the full control effect; nearly all actives have a fitted effect of over 50% in size
# How it was run: (§1)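 Viable HEK293 cells reduce a cell-permeant prosubstrate; the product diffuses out and is consumed by NanoLuc in the medium to give light. Compounds went in after a 5 h incubation and plates were read over the treatment course.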
# [3] = Caspase-3/7 induction in CHO-K1 cells by small molecules, qHTS cell viability counter screen (AID 1346979); note: nearly all actives have a fitted effect of over 35% in size; note: potency is the fitted concentration of half-maximal effect; for activity change, negative = cytotoxicity: % is set by controls: 0 for no effect and ±100 for the full control effect
# How it was run: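 Cells (CHO-K1, wild type) are plated at 1,500 per well and incubated 5hr. Test compounds in DMSO are then pinned in, followed by 16hr at 37C and 5% CO2. Viability is read by CellTiter-Fluor fluorescence after 1hr.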
# [4] = A CellTox Green Cytotoxicity Assay to monitor cytotoxicity in HepG2 cells - 24 hour (AID 1224878); note: nearly all actives have a fitted effect of over 45% in size; note: potency is the fitted concentration of half-maximal effect
# How it was run: (§2)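 Using 1536-well format, dye-containing HepG2 suspension was seeded, allowed 5 h at 37 C/5% CO2, dosed by pintool with compounds, positive and negative controls, and imaged for fluorescence across 40 h.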
# [5] = A CellTox Green Cytotoxicity Assay to monitor cytotoxicity in HepG2 cells - 40 hour (AID 1224879); note: nearly all actives have a fitted effect of over 40% in size; note: potency is the fitted concentration of half-maximal effect
# How it was run: as §2
# [6] = qHTS assay to identify small molecule agonists of the androgen receptor (AR) signaling pathway in the presence of an antagonist - cell viability counter screen (AID 1259379);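 note: MDA-kb2 human breast cancer cells carrying an MMTV luciferase reporter; % is set by controls: 0 for no effect and ±100 for the full control effect; nearly all actives have a fitted effect of over 25% in size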
# How it was run: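 Seed MDA-kb2 at 3,000 cells/well; incubate 5 hr, 37C, 0% CO2. Add nilutamide to 3.0uM final, then pin compounds at 15 concentrations. Incubate 16 hr. Add CellTiter-Fluor at 15 hr, read fluorescence after 1 hr.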
# [7] = qHTS assay to identify small molecule antagonists of the thyroid receptor (TR) signaling pathway (AID 743065); note: nearly all actives have a fitted effect of over 55% in size; note: potency is the fitted concentration of half-maximal effect
# How it was run: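 Antagonism measured as loss of luciferase signal in GH3 cells stably carrying a TRE-luciferase reporter, co-treated with compound and T3 (1 nM final) for 23.5 h at 37 C. Viability was read in the same well by CellTiter-Fluor.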
# [8] = qHTS assay to identify small molecule antagonists of the progesterone receptor (PR) signaling pathway - cell viability counter screen (AID 1346798); note: nearly all actives have a fitted effect of over 50% in size; note: potency is the fitted concentration of half-maximal effect
# How it was run: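 HEK293T PR-UAS-bla, 2% charcoal-stripped FBS; 4 hr pre-plate; cpd + R5020, 16 h 37C; LiveBLAzer read first; then CellTiter-Glo 30 min RT, luminescence.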
# [9] = qHTS assay to identify small molecule agonists of the vitamin D receptor (VDR) signaling pathway - cell viability counter screen (AID 743224); note: nearly all actives have a fitted effect of over 50% in size; note: potency is the fitted concentration of half-maximal effect
# How it was run: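 Plated VDR-bla cells (4 h, 37C) received compound, incubated 16 h, then LiveBLAzer substrate 2 h RT; CellTiter-Glo added afterwards, luminescence read at 30 min.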
# [10] = qHTS RealTime-Glo MT Cell Viability Assay in HEK293 cells - 40 hour (AID 1224874); conditions: RealTime-Glo luminescence; max response: hits give low values; note: potency is the fitted concentration of half-maximal effect; nearly all actives have a fitted effect of over 50% in size
# How it was run: as §1
# [11] = target: Thyrotropin receptor (Homo sapiens) (UniProt P16473); experiment: qHTS assay to identify small molecule antagonists of the thyroid stimulating hormone receptor (TSHR) signaling pathway (AID 1259385; calls by dose curve; note: nearly all actives have a fitted effect of over 20% in size; note: potency is the fitted concentration of half-maximal effect); conditions: TSHR-HEK293 cAMP HTRF, TSH-stimulated antagonist mode; activity change, negative = inhibition: at 92.4 µM (top of the series) unless noted
# Sequence of UniProt P16473 (P16473 whole entry, looked up): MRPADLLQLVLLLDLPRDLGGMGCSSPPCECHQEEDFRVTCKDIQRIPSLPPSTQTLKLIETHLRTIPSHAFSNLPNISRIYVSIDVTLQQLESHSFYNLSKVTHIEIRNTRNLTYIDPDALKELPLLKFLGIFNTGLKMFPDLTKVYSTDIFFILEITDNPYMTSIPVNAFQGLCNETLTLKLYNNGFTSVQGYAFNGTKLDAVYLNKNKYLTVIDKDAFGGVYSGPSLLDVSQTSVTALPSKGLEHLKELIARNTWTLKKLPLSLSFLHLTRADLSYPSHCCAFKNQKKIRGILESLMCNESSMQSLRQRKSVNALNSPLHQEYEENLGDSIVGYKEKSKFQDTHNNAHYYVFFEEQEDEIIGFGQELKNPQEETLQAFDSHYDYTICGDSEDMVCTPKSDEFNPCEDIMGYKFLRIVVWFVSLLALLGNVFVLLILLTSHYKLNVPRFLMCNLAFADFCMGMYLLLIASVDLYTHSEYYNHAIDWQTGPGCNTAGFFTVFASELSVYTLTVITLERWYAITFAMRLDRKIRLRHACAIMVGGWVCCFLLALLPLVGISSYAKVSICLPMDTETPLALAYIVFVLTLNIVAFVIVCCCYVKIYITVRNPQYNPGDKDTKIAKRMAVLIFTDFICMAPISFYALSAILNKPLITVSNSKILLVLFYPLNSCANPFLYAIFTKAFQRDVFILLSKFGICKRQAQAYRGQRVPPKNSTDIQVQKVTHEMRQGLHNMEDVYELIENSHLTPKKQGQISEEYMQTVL
# How it was run: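 Antagonist mode: compound-treated TSHR-expressing HEK293 cells were stimulated with 1.5 ng/mL TSH (final) in presence of Ro20-1724 for 30 min at RT. HTRF cAMP detection after 1 h; each compound tested at 15 concentrations, triplicate.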
# [12] = target: Peroxisome proliferator-activated receptor gamma (Homo sapiens) (UniProt P37231); experiment: qHTS assay to identify small molecule agonists of the peroxisome proliferator-activated receptor gamma (PPARg) signaling pathway (AID 743094; active = well fitted activation curve with a large enough effect in the signal ratio in the repeat runs, not every such curve was filed as active; inconclusive = weak or mixed curves, or effect the other way; inactive = no such curve, though single readings can be large or run the other way; the % refers to the signal ratio; note: potency is the fitted concentration of half-maximal effect); conditions: HEK293H PPARg-UAS-bla, beta-lactamase FRET ratio, 17 h; activation: at 57 µM (top of the series) unless noted
# Sequence of UniProt P37231 (P37231 whole entry, looked up): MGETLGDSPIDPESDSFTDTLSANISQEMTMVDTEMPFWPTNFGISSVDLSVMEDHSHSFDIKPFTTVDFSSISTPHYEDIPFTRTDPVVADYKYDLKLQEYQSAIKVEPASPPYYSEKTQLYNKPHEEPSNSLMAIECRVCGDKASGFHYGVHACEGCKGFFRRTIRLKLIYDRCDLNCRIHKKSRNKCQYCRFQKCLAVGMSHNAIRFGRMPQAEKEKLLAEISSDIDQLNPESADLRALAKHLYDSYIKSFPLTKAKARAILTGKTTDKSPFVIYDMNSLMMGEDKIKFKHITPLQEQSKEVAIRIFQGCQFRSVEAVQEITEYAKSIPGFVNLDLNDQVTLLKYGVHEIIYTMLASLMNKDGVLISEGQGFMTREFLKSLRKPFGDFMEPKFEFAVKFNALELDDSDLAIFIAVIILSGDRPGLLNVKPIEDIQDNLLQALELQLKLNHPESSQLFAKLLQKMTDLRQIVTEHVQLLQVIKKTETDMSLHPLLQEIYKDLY
# How it was run: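 Compounds dissolved in DMSO were added to PPARg UAS-bla HEK293H cells for 17 h at 37C, and reporter expression was quantified by fluorescence intensity after 1 h with LiveBLAzer B/G FRET substrate.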
# [13] = target: Bile acid receptor (Homo sapiens) (UniProt Q96RI1); experiment: qHTS assay to identify small molecule antagonists of the farnesoid-X-receptor (FXR) signaling pathway (AID 743217; active = well fitted inhibition curve with a large enough effect in the signal ratio in the repeat runs, not every such curve was filed as active; inconclusive = weak or mixed curves, or effect the other way; inactive = no such curve, though single readings can be large or run the other way; the % refers to the signal ratio; note: % is set by controls: 0 for no effect and ±100 for the full control effect); conditions: HEK293T FXR-UAS-bla, beta-lactamase ratio, CDCA-stimulated, 16 h; activity change, negative = inhibition: at 62.6 µM (top of the series) unless noted
# Sequence of UniProt Q96RI1 (Q96RI1 whole entry, looked up): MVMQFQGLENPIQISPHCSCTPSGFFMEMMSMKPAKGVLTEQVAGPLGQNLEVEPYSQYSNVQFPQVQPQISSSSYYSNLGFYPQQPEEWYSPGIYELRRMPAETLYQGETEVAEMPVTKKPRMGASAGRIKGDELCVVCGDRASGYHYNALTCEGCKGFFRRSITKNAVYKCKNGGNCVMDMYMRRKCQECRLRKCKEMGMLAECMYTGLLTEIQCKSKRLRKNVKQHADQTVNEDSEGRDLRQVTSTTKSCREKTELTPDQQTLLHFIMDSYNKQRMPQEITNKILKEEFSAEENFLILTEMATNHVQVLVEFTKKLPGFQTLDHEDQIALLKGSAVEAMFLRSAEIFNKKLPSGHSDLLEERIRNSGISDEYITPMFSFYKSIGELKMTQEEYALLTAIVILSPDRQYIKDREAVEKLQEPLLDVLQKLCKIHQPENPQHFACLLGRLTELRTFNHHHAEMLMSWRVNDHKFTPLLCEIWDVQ
# How it was run: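 GeneBLAzer FXR-UAS-bla HEK 293T, CDCA-stimulated (50 uM final). Compound treatment 16 h, 37 °C. Detection: beta-lactamase cleavage of B/G FRET substrate, fluorescence.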
# [14] = Caspase-3/7 induction in HepG2 cells by small molecules, qHTS cell viability counter screen (AID 1346981); note: % is set by controls: 0 for no effect and ±100 for the full control effect; nearly all actives have a fitted effect of over 30% in size
# How it was run: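 Viability determined by CellTiter-Fluor fluorescence in HepG2 wells also used for the luminescent Caspase-Glo 3/7 read. Compounds were present for 16 hr at 37 C, 5% CO2 before reagent addition.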
# [15] = qHTS assay to identify small molecule antagonists of the peroxisome proliferator-activated receptor gamma (PPARg) signaling pathway - cell viability counter screen (AID 743194); conditions: PPARg-bla HEK293H viability, CellTiter-Glo luminescence, 17 h, co-treated with 50 nM rosiglitazone; activity change, negative = cytotoxicity: at 62.6 µM (top of the series) unless noted; note: nearly all actives have a fitted effect of over 55% in size; note: potency is the fitted concentration of half-maximal effect
# How it was run: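 Viability was measured as CellTiter-Glo luminescence in GeneBLAzer PPARg UAS-bla HEK293H cells. These cells had been exposed 17 h at 37 C to compounds together with rosiglitazone at 50 nM final, with the beta-lactamase readout taken in the same wells.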
# [16] = qHTS assay to identify small molecule antagonists of the androgen receptor (AR) signaling pathway - cell viability counter screen (AID 743033; note: nearly all actives have a fitted effect of over 45% in size; note: potency is the fitted concentration of half-maximal effect); conditions: AR-bla HEK293 viability, CellTiter-Glo luminescence, 16 h; activity change, negative = cytotoxicity: at 58.5 µM (top of the series) unless noted
# [17] = target: Androgen receptor (Homo sapiens) (UniProt P10275); experiment: qHTS assay to identify small molecule antagonists of the androgen receptor (AR) signaling pathway (AID 743035; active = well fitted inhibition curve with a large enough effect in the signal ratio in the repeat runs, not every such curve was filed as active; inconclusive = weak or mixed curves, or effect the other way; inactive = no such curve, though single readings can be large or run the other way; the % refers to the signal ratio; note: % is set by controls: 0 for no effect and ±100 for the full control effect); conditions: HEK293 AR-UAS-bla, R1881-stimulated, beta-lactamase FRET, 16 h; activity change, negative = inhibition: at 58.5 µM (top of the series) unless noted
# Sequence of UniProt P10275 (P10275 whole entry, looked up): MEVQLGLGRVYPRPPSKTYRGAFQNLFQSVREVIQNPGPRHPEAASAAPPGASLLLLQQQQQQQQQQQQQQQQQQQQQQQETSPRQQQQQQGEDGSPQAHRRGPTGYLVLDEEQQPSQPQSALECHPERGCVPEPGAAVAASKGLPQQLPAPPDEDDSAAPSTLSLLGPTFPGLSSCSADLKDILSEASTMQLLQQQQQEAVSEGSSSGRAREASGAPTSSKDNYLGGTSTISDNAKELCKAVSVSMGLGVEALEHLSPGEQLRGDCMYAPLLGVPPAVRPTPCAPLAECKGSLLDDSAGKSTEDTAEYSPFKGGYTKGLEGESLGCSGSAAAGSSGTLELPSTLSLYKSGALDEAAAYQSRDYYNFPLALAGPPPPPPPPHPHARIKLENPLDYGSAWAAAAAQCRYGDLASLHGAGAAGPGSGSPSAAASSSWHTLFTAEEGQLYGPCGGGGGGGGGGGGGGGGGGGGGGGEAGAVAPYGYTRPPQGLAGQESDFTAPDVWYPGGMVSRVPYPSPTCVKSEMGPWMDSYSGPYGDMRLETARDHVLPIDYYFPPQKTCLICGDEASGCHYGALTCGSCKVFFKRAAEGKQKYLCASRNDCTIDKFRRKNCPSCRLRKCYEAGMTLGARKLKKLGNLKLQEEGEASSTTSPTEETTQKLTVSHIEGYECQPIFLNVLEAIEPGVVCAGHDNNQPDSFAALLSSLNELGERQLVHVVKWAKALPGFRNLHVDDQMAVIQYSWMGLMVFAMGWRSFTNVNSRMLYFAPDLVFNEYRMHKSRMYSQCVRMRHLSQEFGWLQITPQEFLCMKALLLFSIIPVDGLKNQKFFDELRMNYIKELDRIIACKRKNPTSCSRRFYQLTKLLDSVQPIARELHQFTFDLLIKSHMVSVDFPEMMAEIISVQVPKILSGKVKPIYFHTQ
# How it was run: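 Beta-lactamase FRET read (2 h RT incubation with LiveBLAzer B/G) following 16 h of compound plus R1881 treatment of AR-UAS-bla HEK293 cells, which had been pre-incubated 4 h at 37C.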
# [18] = qHTS RealTime-Glo MT Cell Viability Assay in HEK293 cells - 16 hour (AID 1224872)
# How it was run: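 Homogeneous bioluminescent viability format in HEK293 cells (600 cells/well). Following 5 h at 37 C/5% CO2, 23 nL compound was pintooled; the signal was measured repeatedly during 40 h incubation.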
# [19] = qHTS assay to identify small molecule agonists of H2AX - cell viability counter screen (AID 1224847; calls by dose curve; note: nearly all actives have a fitted effect of over 30% in size; note: potency is the fitted concentration of half-maximal effect)
# How it was run: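 Cells plated first: CHO-K1, 1000 per well in 10% FBS medium, incubated overnight at 37C. Then 15-point compound titration added (final DMSO 0.76%) for 3 hr. Finally CellTiter-Glo added and luminescence read.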
# [20] = qHTS assay to identify small molecule agonists of H2AX (AID 1224845; active = well fitted activation curve with a large enough effect in the signal ratio in the repeat runs, not every such curve was filed as active; inconclusive = weak or mixed curves; the % refers to the signal ratio; note: % is set by controls: 0 for no effect and ±100 for the full control effect); conditions: CHO-K1 phospho-H2AX Ser139 HTRF, 3 h; activation (H2AX phosphorylation): at 154 µM (top of the series) unless noted
# How it was run: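 Phospho-H2AX Ser139 measured by HTRF (ex 320 nm; em 665 and 620 nm) after 24 hr antibody incubation. Compounds, 15 concentrations, 0.76% DMSO, were applied to CHO-K1 cells for 3hr at 37C before lysis.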
# Tags give direction and shape of the fitted curve or compound fluorescence and quenching.
smiles,measurement,setting,value
CC1=C(O)C(=O)CO1,Potency,[1],"inconclusive [activator, single point]"
C=C(C)[C@H]1CC=C(C)CC1,Potency,[2],inactive
same,Potency,[3],inactive
CN=C(NC#N)NCCSCc1nc[nH]c1C,Potency,[4],"inconclusive [activator, single point]"
same,Potency,[5],"inconclusive [activator, single point]"
same,Potency,[6],inactive
C[C@]12CC[C@@H]3c4ccc(O)cc4CC[C@H]3[C@@H]1C[C@@H](O)[C@@H]2O,Potency,[7],"inconclusive [inhibitor, single point]"
same,activation,[1],inconclusive: -6.3%
same,Potency,[8],"inconclusive [rising, full curve, poor fit]"
CCOC(=O)c1ccc(N)cc1,Potency,[9],"inconclusive [cytotoxic, partial curve, poor fit]"
same,Potency,[10],"inconclusive [cytotoxic, partial curve]"
same,Potency,[11],"inconclusive [falling, single point]"
same,Potency,[8],"inconclusive [cytotoxic, partial curve, poor fit]"
CCCCCCCCOC(C)=O,Potency,[7],inactive
OCc1cccc(Oc2ccccc2)c1,activation,[12],inconclusive: 3%
same,Potency,[13],inactive
same,Potency,[14],inactive
CN/C(=C\[N+](=O)[O-])NCCSCc1ccc(CN(C)C)o1,Potency,[15],"inconclusive [rising, partial curve, poor fit]"
CCc1cccc(CC)c1,Potency,[3],"inconclusive [rising, partial curve, poor fit]"
COc1cc(C(=O)NCc2ccc(OCCN(C)C)cc2)cc(OC)c1OC,Potency,[16],"inconclusive [cytotoxic, full curve, poor fit]"
same,Potency,[7],inactive
same,Potency,[9],inactive
NCCN1CCNC1=O,Potency,[12],inactive
same,Potency,[6],inactive
same,Potency,[3],inactive
C=CCS(=O)(=O)O,Potency,[8],inactive
CC(C)COC(=O)COc1ccc(Cl)cc1Cl,Potency,[17],inactive
same,"activity change, negative = cytotoxicity",[15],inconclusive: -8.64%
same,Potency,[1],inactive
FC(F)(F)c1ccccc1-n1ccnc1,Potency,[18],inactive
same,Potency,[8],"inconclusive [cytotoxic, single point]"
CCCCCCCCCCCCCCCCC,Potency,[12],inactive
CC(=O)c1ccccc1[N+](=O)[O-],Potency,[4],inactive
CC(=C(CCOC(=O)C(C)C)SSC(CCOC(=O)C(C)C)=C(C)N(C=O)Cc1cnc(C)nc1N)N(C=O)Cc1cnc(C)nc1N,Potency,[19],inactive
same,Potency,[4],"inconclusive [activator, single point]"
same,Potency,[5],"inconclusive [activator, single point]"
CCCCC(CC)COC(=O)CCCCC(=O)OCC(CC)CCCC (centres undefined),Potency,[7],inactive
same,Potency,[12],"inconclusive [falling, partial curve, poor fit]"
same,Potency,[11],inactive
same,Potency,[8],inactive
same,Potency,[3],inactive
CCC(C)(CN(C)C)OC(=O)c1ccccc1 (centres undefined),Potency,[7],inactive
CN(C)CCCO[C@@H]1[C@H]2OC(C)(C)O[C@H]2O[C@@H]1C(O)CO (some centres undefined),Potency,[16],inactive
same,Potency,[9],"inconclusive [rising, partial curve, poor fit]"
same,Potency,[8],inactive
same,Potency,[3],inactive
CCN(CC)CCOCCOC(=O)C1(c2ccccc2)CCCC1,Potency,[6],inactive
same,Potency,[8],"inconclusive [cytotoxic, partial curve, poor fit]"
COc1cc(-c2ccc(=O)[nH]n2)ccc1OC(F)F,Potency,[16],inactive
same,Potency,[8],inactive
CCOC(=O)n1ccn(C)c1=S,Potency,[13],inactive
same,Potency,[19],"inconclusive [cytotoxic, single point]"
same,Potency,[4],"inconclusive [activator, single point]"
same,Potency,[5],"inconclusive [activator, single point]"
same,Potency,[3],inactive
C[C@]12CCC(=O)C=C1CC[C@@H]1[C@@H]2[C@@H](O)C[C@@]2(C)[C@H]1CC[C@]2(O)C(=O)CO,Potency,[9],inactive
same,Potency,[8],inactive
c1ccc2c(c1)Cc1ccccc1-2,Potency,[7],"inconclusive [inhibitor, single point]"
same,Potency,[18],inactive
same,Potency,[5],inactive
same,Potency,[6],inactive
same,"activity change, negative = inhibition",[11],inconclusive: -9.06%
CCN(CC)CC,Potency,[16],inactive
same,Potency,[20],inactive

# Source: PubChem BioAssay (Tox21)
